In all, about 33,000 sequences were measured (“E-score (-0.5 to 0.5)”: median about -0.012, highest 2% from about 0.27 on). Some of the results follow.
molecular target: T1, Vhr1 (UniProt P40522); test: PBM E-score (8-mer binding enrichment) (E-score (-0.5 to 0.5)); higher = stronger / more preferred TF binding; most listed sequences are background and not binding sites; details: protein concentration: 200 nM; construct: GST-full length
T1 sequence: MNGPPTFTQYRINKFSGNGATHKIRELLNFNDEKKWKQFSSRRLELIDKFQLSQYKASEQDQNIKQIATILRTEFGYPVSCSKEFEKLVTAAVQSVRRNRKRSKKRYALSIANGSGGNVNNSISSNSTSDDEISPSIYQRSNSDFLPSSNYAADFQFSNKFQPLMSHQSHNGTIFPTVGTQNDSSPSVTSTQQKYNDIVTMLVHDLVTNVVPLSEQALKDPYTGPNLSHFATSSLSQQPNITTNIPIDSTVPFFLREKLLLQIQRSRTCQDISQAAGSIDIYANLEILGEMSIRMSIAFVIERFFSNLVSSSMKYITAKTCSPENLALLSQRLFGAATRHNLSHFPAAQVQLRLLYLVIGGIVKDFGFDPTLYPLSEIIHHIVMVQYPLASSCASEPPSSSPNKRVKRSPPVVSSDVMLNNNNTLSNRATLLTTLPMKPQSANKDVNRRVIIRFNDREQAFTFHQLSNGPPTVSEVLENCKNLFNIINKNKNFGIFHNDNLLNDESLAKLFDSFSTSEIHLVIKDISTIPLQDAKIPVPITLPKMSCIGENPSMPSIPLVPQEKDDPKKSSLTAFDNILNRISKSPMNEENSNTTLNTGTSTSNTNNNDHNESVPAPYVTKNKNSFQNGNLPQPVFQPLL
How it was run: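 Yeast transcription factors carrying a GST tag, as full-length proteins or DNA-binding domains, were produced by PURExpress in vitro transcription/translation. About 100-200 nM protein was applied to universal all-10-mer Agilent arrays, double-stranded by primer extension on fresh or once-stripped slides. Bound protein was detected with fluorescent anti-GST, and scans were normalised with masliner. The Universal PBM Analysis Suite gave each ungapped eight-base word, pooled with its reverse complement, an E-score, a modified Wilcoxon-Mann-Whitney statistic.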

| Sequence | PBM E-score |
| --- | --- |
| CCAACAAA | 0.0426 |
| CCGCTTTA | -0.16 |
| GCCCGAAA | -0.0862 |
| ATAGATTA | 0.0342 |
| CATCGCAG | 0.124 |
| GCCGTCCA | -0.114 |
| AGACGCTG | -0.00432 |
| GGGTGTTA | 0.218 |
| ATGACCGC | 0.108 |
| CTTTCCGA | -0.198 |
| CGCGAACA | 0.00318 |
| AATTGCTC | -0.178 |
| ACTGATCA | 0.172 |
| CACATTCG | 0.0327 |
| ATTACCGA | 0.115 |
| AGTCCACG | 0.118 |
| ATCGGTGA | 0.181 |
| AGATTATC | -0.149 |
| AATGCTCA | 0.021 |
| CCGTTATC | -0.151 |
| AGCGAAGG | -0.0123 |
| CTCCCTAA | -0.107 |
| GACGGAGC | -0.0703 |
| ACAATCAA | 0.0103 |
| CCCTAGCG | -0.146 |

| Sequence | PBM E-score |
| --- | --- |
| AACGACAA | 0.0611 |
| AAATGATG | 0.088 |
| GATGAGCC | 0.175 |
| CACGGGTC | -0.0331 |
| CGCCCCTC | 0.185 |
| GGATTCCA | 0.193 |
| GACGGTAC | -0.0962 |
| CACCATGA | 0.143 |
| ATCACATA | 0.19 |
| CAGATCTA | -0.0758 |
| ATGCAACG | -0.00087 |
| AGGTATGA | 0.163 |
| ACAACGTC | -0.215 |
| GGCTTCCA | -0.112 |
| ATGATAAC | 0.0602 |
| AGCAGGCT | -0.0486 |
| CCAGAACG | 0.115 |
| ACCGGTCA | -0.12 |
| ATCGCCCG | 0.0579 |
| CTTACATC | 0.00926 |
| GAGACGGA | 0.00065 |
| TACCGTGA | 0.133 |
| ACTGTCAA | -0.0135 |
| ATAGAGCG | -0.071 |
| CTTGAGTC | 0.333 |

| Sequence | PBM E-score |
| --- | --- |
| ATGGTGCA | -0.0579 |
| CTGACTTA | 0.187 |
| ACTTCTCT | -0.0892 |
| AATTGCCC | -0.0717 |
| AATGTACT | -0.0342 |
| CTAGTCCC | -0.0934 |
| TGACGGCA | -0.0485 |
| CAACAGAC | -0.0651 |
| CAGAAAAC | 0.0681 |
| GTCAACAC | 0.131 |
| ACGGCTCG | 0.0898 |
| CAGCTGTA | 0.0408 |
| CACCGGTA | 0.0399 |
| TATTCGAA | -0.245 |
| GTACGCAC | -0.061 |
| GAGTCCAA | 0.179 |
| CCATCGTC | 0.123 |
| CACTGGTA | 0.0975 |
| GGTACACC | -0.031 |
| AATAGAAT | -0.00178 |
| ATCACTAG | 0.204 |
| CACGTCGG | -0.188 |
| CAATCGGA | 0.058 |
| CCTGTACG | -0.0115 |
| AGTGTCGG | 0.166 |

| Sequence | PBM E-score |
| --- | --- |
| ATAAAAGC | -0.181 |
| AGTGGTTC | 0.116 |
| TTACCAAA | -0.0143 |
| GATGAGGC | -0.0851 |
| ACGTCAGT | -0.0497 |
| GACGTATA | -0.0619 |
| CACGCCAA | -0.0734 |
| ACGTTTTG | -0.136 |
| CGCGGTTA | 0.102 |
| GGCGAGCA | -0.029 |
| GTCTAAAA | -0.383 |
| CCGGTGAG | 0.0279 |
| GGATTGCA | 0.222 |
| AAAGGTGA | -0.00246 |
| GGGAGATA | -0.105 |
| CCGATCGC | -0.141 |
| AGAGAATC | 0.0515 |
| CGAACACA | 0.0995 |
| TCATCGAA | 0.0264 |
| AGTATGAT | 0.271 |
| GCCCGCGC | 0.186 |
| AATCGTCA | 0.0876 |
| CAGGCAGG | 0.0801 |
| ACCGTAGG | -0.255 |
| CACCCCTG | 0.0204 |

| Sequence | PBM E-score |
| --- | --- |
| AATCGTGA | 0.0588 |
| CGGCGACG | 0.0639 |
| CGCGTTAA | -0.0336 |
| CCTATCCG | -0.132 |
| AGAAAAGG | 0.086 |
| GATGATAC | 0.0656 |
| TACATACA | 0.228 |
| ATAAACGG | -0.0453 |
| GCTAATAA | -0.0618 |
| CGCGTGCA | -0.0837 |
| CGAATCAA | 0.127 |
| CTCAGTCC | -0.0479 |
| CAACCATA | 0.0913 |
| ATGCATAG | 0.013 |
| CGCTAAGA | -0.0237 |
| GCGTAAGC | -0.199 |
| CCGTGTAG | 0.158 |
| CAGCTATA | 0.0587 |
| AGGGTCAA | 0.0107 |
| CCAGCAGC | -0.0972 |
| ATAAGTTA | 0.0404 |
| GGTAATAC | 0.14 |
| AGCCCTTA | -0.318 |
| GTCGTAAC | 0.118 |
| ACCGATAA | -0.125 |

| Sequence | PBM E-score |
| --- | --- |
| GAAGCGCA | -0.188 |
| GCCTCTAC | -0.15 |
| CCTTGCCA | -0.091 |
| ATACTAAG | -0.103 |
| GAATTCCC | -0.242 |
| CCGAGAAA | -0.0769 |
| ATGCTGCC | 0.00421 |
| ACTAGCAG | 0.0888 |
| CTGTAGTC | 0.241 |
| AGCTCTAC | -0.221 |
| AGAGCAGC | -0.0947 |
| TCCATTCA | -0.102 |
| CAACTCGG | 0.0466 |
| GACTGACC | -0.0132 |
| ACCCACAA | 0.248 |
| CAAGTTTC | -0.0188 |
| ACCATGCT | 0.107 |
| CTAGCTGC | -0.0727 |
| GACCAATA | -0.105 |
| AGTGCCAT | -0.134 |
| GCACTAGC | -0.0838 |
| CCGCCCTC | -0.0458 |
| GGCTGCTA | 0.0128 |
| CCGTCGGA | -0.0573 |
| ATCGGCCA | -0.237 |

| Sequence | PBM E-score |
| --- | --- |
| ACCAGCCA | 0.131 |
| CACGTACC | -0.0762 |
| GACGACGC | -0.049 |
| CGTGTCAC | 0.126 |
| CCTTATTA | -0.0811 |
| AAGGCATT | -0.186 |
| AAAGGTGT | -0.0992 |
| CAGGACTC | 0.18 |
| CCCCAGAG | -0.156 |
| ACCCACTC | 0.282 |
| AATTGACT | 0.149 |
| AGCGGTCG | -0.301 |
| ATGTTCTA | -0.107 |
| AAACTTGC | -0.0278 |
| ACCTCCCA | -0.119 |
| ATACGTCA | -0.105 |
| AGCCCCAG | -0.122 |
| AATGAGCA | -0.215 |
| GCGAAGAC | -0.056 |
| CGTTCTTC | -0.00307 |
| GAAAACCC | -0.139 |
| GTTCACCA | -0.0385 |

From the supplement of paper PMC3334620
